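Interpolation was linear, between the two tested concentrations surrounding the appropriate level; five concentrations were tested over 48 hours in 96-well plates. GI50: concentration for 50% inhibition of growth.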 Active and inactive are the calls of the source. No stated cut-off is given here; in the data, active = GI50 up to about 1.1 µM and inactive = higher.

The values that follow come from ChEMBL document CHEMBL1201862, “PubChem BioAssay data set” (2004).

This experiment concerns NCI-H322M. As to the kind of experiment: NCI tumour cell line growth inhibition, 48 h.
Regarding `COc1ccc(-c2cc3c(nn2)-c2ccccc2C3=O)cc1`, the GI50 was inactive: > 10 µM.

For `C#CCN(Cc1ccc2nc(-c3ccccc3)c(Cl)nc2c1)c1cc(OC)c(OC)c(OC)c1`, the GI50 was inactive: > 100 µM.

Take `CCOC(=O)C(NC(=O)CC)(Nc1ccc(S(=O)(=O)Nc2onc(C)c2C)cc1)C(F)(F)F` (stereo not given): the GI50 was inactive: > 100 µM.

On to `NCc1nnn(Cc2ccccc2)c1N`, for which the GI50 is inactive: > 100 µM.

With `CCOC(=O)/C(=C\c1ccccc1)C(=O)CCN1CCOCC1`, the GI50 is inactive: 23.7 µM.

For the compound `COc1ccc2c(c1)OCC1Cc3cccc(OC)c3OC21` (stereo not given), the GI50 is inactive: > 100 µM.

Consider `CCOC(=O)C(C)(c1cn(C)c2ccccc12)c1cn(C)c2ccccc12`, for which the GI50 is inactive: > 100 µM.

In the case of `COc1ccc(/C=C(/c2ccccc2)c2c(C)cc(C)c(/C(=C\c3ccc(OC)cc3)c3ccccc3)c2/N=N/c2cc(C)cc(C)c2)cc1`, the GI50 is inactive: 52 µM.

In the case of `COc1ccc(C(CC(C)=O)c2c(O)c3ccccc3oc2=O)cc1OC` (stereo not given), the GI50 was inactive: > 100 µM.

Turning to `N#CCCCC[N+]12CN3CN(CN(C3)C1)C2`, the GI50 was inactive: > 100 µM.

For the compound `CCCC[C@H]1[C@@H](OCOc2ccccc2)COC(=O)N1[C@H](C)c1ccccc1`, the GI50 is inactive: 24.3 µM.

`Cc1ccc2nc3ccccc3c(C3C4C(=O)N(c5ccc(F)cc5)C(=O)C4ON3C(C(N)=O)c3ccccc3)c2c1` (stereo not given): the GI50 was inactive: > 100 µM.

For `CC1CN(c2cc3c(cc2F)c(=O)c(C(=O)O)cn3-c2ccc(N3CCN(C)CC3)cn2)CC(C)N1` (stereo not given), the GI50 is inactive: > 100 µM.

With `C[C@]12CCC(=O)C=C1CC[C@@H]1C2CC[C@]2(C)Nc3c(ncn3-c3ccc(F)cc3)CC12` (stereo not given in full), the GI50 was inactive: 56.8 µM.

On to `COc1ccccc1-c1cc(=O)c2ccccc2[nH]1`, for which the GI50 is inactive: > 100 µM.

Regarding `c1ccc(CN2CCC3(CC2)SSC2(CCN(Cc4ccccc4)CC2)S3)cc1`, the GI50 is inactive: > 100 µM.

For `CCOC(=O)c1ccc(NC(=O)SCCC(=O)O)cc1`, the GI50 is inactive: > 100 µM.

With `O=C(c1ccc(Cl)cc1Cl)N(Cc1cccnc1)C(=S)N(Cc1cccnc1)C(=O)c1ccc(Cl)cc1Cl`, the GI50 was inactive: 3.57 µM.

Take `O=C(Cc1nc2ccccc2s1)Nc1ccc(Cl)cc1`: the GI50 is inactive: > 100 µM.

As to `NC(=O)NNC(=O)NC12CC3CC(CC(C3)C1)C2`, the GI50 was inactive: > 100 µM.

Take `O=S(=O)(c1ccccc1)C1CN2OC1(S(=O)(=O)c1ccccc1)CC2c1ccc(Br)cc1` (stereo not given): the GI50 is inactive: > 100 µM.

Regarding `C[C@]12CCC(=O)C=C1CC[C@@H]1[C@@H]2CC[C@]2(C)C(=O)NC(=O)C[C@@H]12`, the GI50 was inactive: > 100 µM.

On to `CN(C(=O)c1cc2c(s1)sc1c(=O)n(C)c3ccccc3c12)c1ccccc1`, for which the GI50 is inactive: 14.9 µM.

As to `CCCCOC(=O)/C(CC(=O)C=C(C)C)=N\NS(=O)(=O)c1ccc(C)cc1`, the GI50 is inactive: > 100 µM.

As for `CC1(C)OC(=O)C(C)(C)OC1=O`, the GI50 was inactive: > 100 µM.

With `OC1CCSc2ccccc21` (stereo not given), the GI50 was inactive: > 100 µM.

In the case of `Cc1c(O)c(OC2OC(CO)C(O)C(O)C2O)cc2c1C=C[C@@H]1[C@@]2(C)C(=O)C[C@]2(C)[C@@H]([C@@](C)(O)C(O)/C=C/C(C)(C)O)[C@H](O)C[C@@]12C` (stereo not given in full), the GI50 is inactive: > 100 µM.

As for `NC12CC3C4CC5(N)CC3C(C1)C(C5)C4C2`, the GI50 is inactive: > 100 µM.

As to `COc1ccc(C(=O)/C=C/c2cc(O)c(O)cc2F)c(OC)c1`, the GI50 was inactive: 3.95 µM.

Regarding `COC(=O)C1C(O)C(C)C(O)C(C)(O)/C=C\C=C(C)C(=O)Nc2c(C)c(OC(C)=O)c3c(c2O)C(=O)C(C)=C2OCOC(=C23)C(C)=CC(C)(O)C(O)C(C)C1OC(C)=O` (stereo not given), the GI50 is inactive: 29.4 µM.

For `ON[C@@H]1C=C[C@H](n2cnc3c(NC4CC4)ncnc32)C1`, the GI50 is inactive: > 100 µM.

On to `CC1(C)c2ccccc2N2O[C@@H]3C(=O)N(c4ccccc4)C(=O)[C@@H]3C21c1ccccc1` (stereo not given in full), for which the GI50 is inactive: > 100 µM.

On to `Cc1nc(Nc2nc3ccccc3[nH]2)nc(Cl)c1CCCl`, for which the GI50 was inactive: > 100 µM.

As for `CCC(=O)/C(=C\I)c1ccccc1`, the GI50 is inactive: 14.5 µM.

As to `COc1ccc2c(c1)c1c3c(ccc4ncn2c43)N(CCN(C)C)CCN=1`, the GI50 was active: 0.322 µM.

As for `CC(C)(C)OC(=O)C1=C(N)N(Cc2ccccc2)C2(C)C=CC(=O)C=C12` (stereo not given), the GI50 was inactive: 16.9 µM.

`O=C1CCCC/C1=C\c1ccc(Br)cc1`: the GI50 is inactive: 20.3 µM.

Consider `NC1=NCCC1(c1ccccc1)c1ccccn1` (stereo not given), for which the GI50 was inactive: > 100 µM.

For the compound `COc1ccc(/C(=N\NC(=O)C(N)=O)C(c2ccc(OC)cc2)C2(O)C(=O)Nc3c(Cl)cccc32)cc1` (stereo not given), the GI50 is inactive: > 100 µM.

In the case of `N#CC1=C(S)N(C2OC(CO)C(O)C(O)C2O)C(c2ccccc2)=CC1c1ccco1` (stereo not given), the GI50 is inactive: 34.1 µM.

As to `CC[C@]1(Cc2ccc(OC)c(OC)c2)CN(S(=O)(=O)c2ccc(C)cc2)C[C@@H]1OC(C)=O`, the GI50 was inactive: > 100 µM.

Regarding `COc1ccccc1C1CC(=O)CC(c2ccccc2OC)C12C(=O)NC(=S)NC2=O` (stereo not given), the GI50 is inactive: 57.7 µM.

In the case of `S=P1(N2CCCCC2)Oc2ccc3ccccc3c2-c2c(ccc3ccccc23)O1`, the GI50 was inactive: > 100 µM.

For `O=C1CC(c2cccc(Cl)c2)n2cccc21` (stereo not given), the GI50 is inactive: > 100 µM.

Take `OC(C/C=N/Nc1ccccc1)(C(F)(F)Cl)C(F)(F)Cl`: the GI50 was inactive: > 10 µM.

As for `O=C(/N=N/c1ccc(Br)cc1)NNc1ccc(Br)cc1`, the GI50 is inactive: 38.5 µM.

For `COc1ccc(C(=O)N2CCN(c3ccc4c(c3)OCC(=O)N4)CC2)cc1OC`, the GI50 was inactive: > 100 µM.

For the compound `CN(c1ccccc1Cl)S(=O)(=O)c1ccccc1[N+](=O)[O-]`, the GI50 is inactive: > 100 µM.

Consider `COC(=O)/C(=N\NC(C)(C)C)C(C(=O)C(=O)Nc1cc(C)ccc1C)c1nc2ccccc2nc1O` (stereo not given), for which the GI50 was inactive: > 100 µM.

Take `CC1(C)OCC(/C=C\C(O)CC2(C)OCCO2)CO1` (stereo not given): the GI50 was inactive: > 100 µM.

In the case of `CSc1nnc2n1-c1ccccc1SCC2`, the GI50 is inactive: > 100 µM.

For `CCOC(=O)c1nc2ccc(C(F)(F)F)cc2nc1Oc1ccc(OC)cc1`, the GI50 is inactive: > 100 µM.

`CCCCCCCCCC/C=C/C=O`: the GI50 was inactive: > 100 µM.

With `O=C(O)c1c(CC(Cc2ccccc2)C(=O)O)ccc2c1CCC2` (stereo not given), the GI50 was inactive: > 100 µM.

Consider `CCOC(=O)NC(=O)c1cn(CCOC(=O)CCCCCCCCC(=O)OCCn2cc(C(=O)NC(=O)OCC)c(=O)[nH]c2=O)c(=O)[nH]c1=O`, for which the GI50 was inactive: > 100 µM.

In the case of `CC(=O)Nc1ccc(/C=C2/NC(=S)N(/C=C3\C(=O)Oc4ccccc4C3=O)C2=O)cc1`, the GI50 is inactive: 79.4 µM.

As to `O=C1CC2Sc3ccccc3N=C2N1c1ccc(Cl)cc1Cl` (stereo not given), the GI50 is inactive: > 100 µM.

For `CC1=C/C(=N\OCC(=O)O)CC(c2ccc(C(C)C)cc2)C1` (stereo not given), the GI50 is inactive: > 100 µM.

`O=C1Nc2ccccc2C12CCNC2Cc1ccccc1` (stereo not given): the GI50 is inactive: > 100 µM.

Regarding `CCN(CC)C(=O)N[C@@H](CC(C)C)C(=O)NC`, the GI50 was inactive: > 100 µM.

Take `CCN(CC)Cc1nc2sc3c(c2c(=O)n1-c1ccccc1)CCCC3`: the GI50 was inactive: 33.7 µM.

`CC1CC=CC(O)C1` (stereo not given): the GI50 was inactive: > 100 µM.

On to `c1ccc2c(c1)[nH]c1nc3cc(-c4ccc5nc6c(nc5c4)[nH]c4ccccc46)ccc3nc12`, for which the GI50 was inactive: > 100 µM.

As for `Cc1ccc(CC2(C(=O)O)Cc3ccc(C)cc3C2)cc1` (stereo not given), the GI50 is inactive: > 100 µM.

For `COc1ccc(NC(=O)CC(=O)n2nc(C)c(/N=N/c3ccc(C)c(C)c3)c2C)cc1`, the GI50 is inactive: 60.5 µM.

For `Cc1cc2c(c(S(=O)(=O)c3ccc(Cl)cc3[N+](=O)[O-])c1)NCCC2`, the GI50 is inactive: > 100 µM.

With `COc1cc(CNc2ccc3nc4n(c(=O)c3c2)CCCCC4)cc(OC)c1OC`, the GI50 was inactive: > 100 µM.

In the case of `O=C(O)CNCc1c2ccccc2nc2ccccc12`, the GI50 was inactive: 69.7 µM.

Turning to `COc1ccc(C2S/C(=C\c3ccc([N+](=O)[O-])cc3)C(=O)N2NC(=O)Cc2ccccc2)cc1` (stereo not given), the GI50 is inactive: > 100 µM.

As to `Oc1c(C(O)c2ccccn2)ccc2ccccc12` (stereo not given), the GI50 is inactive: 64.1 µM.

`COc1ccc(N2C(=O)C(C#N)=C(SC)C(C#N)C2=O)cc1` (stereo not given): the GI50 was inactive: > 100 µM.

With `Cc1ccc(Nc2n[nH]c(=S)s2)cc1C`, the GI50 was inactive: > 100 µM.

As for `Cc1c(C(=O)O)oc2ccc([N+](=O)[O-])cc12`, the GI50 was inactive: > 100 µM.

`Clc1cc(-c2ccccc2)nc2ccccc12`: the GI50 is inactive: 73.6 µM.

`COC(=O)C1(C(=O)OC)N=C(C)OC1/C=C/c1ccccc1` (stereo not given): the GI50 is inactive: > 100 µM.

Take `COC12C=CC(CC1)c1c(O)ccc(O)c12` (stereo not given): the GI50 was inactive: > 93.1 µM.

In the case of `CCc1ccc2c(c1)CC1(C2)Cc2cc3c(cc2C1)C(=O)CC3` (stereo not given), the GI50 is inactive: 26.7 µM.

Turning to `CN(C)CCOc1cc2c(c3ccccc13)-c1ccccc1C2=O`, the GI50 was inactive: 2.32 µM.

For the compound `O/N=N/c1ccc2ccccc2n1`, the GI50 is inactive: > 100 µM.

As to `O=S(=O)(O)c1ccc2c(/N=N/c3ccc(Cl)cc3)c(O)ccc2c1`, the GI50 was inactive: > 100 µM.

For `COc1ccc(C(C)NNC(=O)c2cc[n+]([BH2-]C#N)cc2)cc1OC` (stereo not given), the GI50 is inactive: > 100 µM.

For `CC(=O)c1ccc2c(c1)C(=O)c1sc(C(C)=O)cc1C2=O`, the GI50 is inactive: 2.61 µM.

`Cc1cccc(Cl)c1NC(=O)c1cccc([N+](=O)[O-])c1O`: the GI50 is inactive: 61.4 µM.

Take `Cc1ccc2c(O)cc(-c3ccc(Cl)cc3)nc2n1`: the GI50 is inactive: 6.05 µM.

In the case of `N#CC(C#N)=C(N)/C(C#N)=C/c1ccc2[nH]ccc2c1`, the GI50 was inactive: > 100 µM.
